Out of some 48,000 compounds screened, about 550 (1.1%) were called active. About 4% were inconclusive and are not listed. Rule as the data show it: active = potency below about 15 µM; inconclusive = mostly about 16 µM to 33 µM; inactive = weaker than that. The list shows a part of the results.
The molecules below were run against Lysosomal acid glucosylceramidase (Homo sapiens) (UniProt P04062) (assay: Glucocerebrosidase). Conditions: purified enzyme, resorufin glucoside fluorescence (screen aimed at inhibitors), 20 min; series mostly up to 77 µM.
Sequence of UniProt P04062 (P04062 whole entry, looked up): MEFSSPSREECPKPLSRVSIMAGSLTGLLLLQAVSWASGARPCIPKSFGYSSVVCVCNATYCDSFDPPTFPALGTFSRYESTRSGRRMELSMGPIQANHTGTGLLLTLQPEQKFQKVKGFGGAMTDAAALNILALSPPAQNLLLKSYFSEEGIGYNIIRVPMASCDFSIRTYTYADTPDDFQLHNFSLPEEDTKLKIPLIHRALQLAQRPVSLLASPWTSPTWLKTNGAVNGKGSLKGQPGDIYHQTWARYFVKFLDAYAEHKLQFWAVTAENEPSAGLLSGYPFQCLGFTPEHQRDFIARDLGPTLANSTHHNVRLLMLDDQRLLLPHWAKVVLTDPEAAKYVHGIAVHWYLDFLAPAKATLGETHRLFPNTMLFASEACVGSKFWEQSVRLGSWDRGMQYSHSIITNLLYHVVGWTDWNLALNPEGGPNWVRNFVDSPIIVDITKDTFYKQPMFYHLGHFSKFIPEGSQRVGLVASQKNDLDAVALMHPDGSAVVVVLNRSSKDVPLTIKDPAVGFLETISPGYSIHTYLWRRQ
Procedure, shortened: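 Compounds titrated against 0.2 nM normal enzyme, 30 uM resorufin beta-D-glucopyranoside substrate, citrate/phosphate buffer with taurocholate and tween-20, pH 5.9. Reaction ran 20 min at room temperature; fluorescence (Ex 548/Em 600) gave AC50.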
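Also: the screen sought inhibitors.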
Potency is read from the fitted curve at half-maximal effect.

Potency, inactive:
Cc1cccc(-n2nc3c(c2NC(=O)c2ccc(Br)o2)CSC3)c1C > 76.9 µM, Cc1ccc(O)c(CC(C)C)n1 > 76.9 µM, Cc1cccn2c(=O)c3cc(C(=O)NCC4CCCO4)n(C)c3nc12 (stereo not drawn) > 76.9 µM, CCN(CC)c1ncnc2c1cnn2C > 76.9 µM, Cc1ccc(C(=O)CCC(=O)Nc2cccnc2)cc1C > 76.9 µM, Cc1ccc(CC2CC(=O)N(c3ccncc3)C2=O)cc1 (stereo not drawn) > 76.9 µM, COC(=O)C(O)(CC(=O)Nc1cccc(SC)c1)C(F)(F)F (stereo not drawn) > 76.9 µM, O=C(c1ccc2c(c1)OCCO2)C1CCN(C(=O)c2ccc(F)cc2)CC1 > 76.9 µM, CCOC(=O)c1cnc2nc(C)[nH]n2c1=O > 76.9 µM, Cc1cc(C)n2nc(CC(=O)NC3CCCCCCC3)nc2n1 > 76.9 µM, Cc1sc2ncnc(SCC(=O)NC(=O)NCc3ccco3)c2c1C > 76.9 µM, CCn1ncc(Br)c1C(=O)Nc1ccc(F)cc1F > 76.9 µM, Cn1c(=O)c2c(nc(CN3CCc4ccccc4C3)n2Cc2ccc(Cl)cc2)n(C)c1=O > 76.9 µM, COc1ccc(Cl)cc1C(=O)CSc1nc(N)cc(N)n1 > 76.9 µM, O=C(NCCCN1CCCC1=O)c1cc(=O)c2ccccc2o1 > 76.9 µM, CCCCOC(=O)CSc1nc(N)c(C#N)c(-c2ccc(OCC)cc2)c1C#N > 76.9 µM, CCOc1ccc(N2CC(C(=O)NCc3cccc(C)c3)CC2=O)cc1 (stereo not drawn) > 76.9 µM, CC1Cc2ccccc2N1C(=O)CSc1nnc(CNc2ccccc2)o1 (stereo not drawn) > 76.9 µM, c1ccc2c(c1)oc1c(Nc3ccc4c(c3)OCO4)ncnc12 > 76.9 µM, Cc1c(C2(O)C(=O)Nc3ccc(F)cc32)c(=O)n(-c2ccccc2)n1C (stereo not drawn) > 76.9 µM, CC1(C)CC(=O)C=C(NCC2CCCO2)C1 (stereo not drawn) > 76.9 µM, O=C(Nc1ccc(Cl)cc1)c1ccsn1 > 76.9 µM, Cc1c(NC(=O)C2CCCNC2=O)c(=O)n(-c2ccccc2)n1C (stereo not drawn) > 76.9 µM, CCCCCn1c(=O)[nH]c2cc(C(=O)NCCCN3CCC(C)CC3)ccc2c1=O > 76.9 µM, O=C(C1CC(c2ccccc2O)=NO1)N1CCCC1 (stereo not drawn) > 76.9 µM, COC(=O)c1ccccc1S(=O)(=O)Nc1ccc2cn[nH]c2c1 > 76.9 µM, CCOc1ccccc1-c1nc2c([nH]1)c(=O)n(C)c(=O)n2C > 76.9 µM, CCN1C(=O)C2(C(C#N)=C(N)Oc3cc(C)oc(=O)c32)c2ccccc21 (stereo not drawn) > 76.9 µM, COC(=O)c1cc(C(=O)OC)cc(N2C(=O)CN=C2Nc2nc(C)cc(C)n2)c1 > 76.9 µM, CCOC(=O)Cc1nnc(NC(=O)COc2ccc(C)cc2)s1 > 76.9 µM, CCCN1CCN(CCCNC(=O)Cn2nc(-c3ccccc3)ccc2=O)CC1 > 76.9 µM, N#Cc1cn(CC(=O)O)c2ccccc12 > 76.9 µM, Cc1cc(NC(=O)c2cc(-c3ccccc3)on2)n(-c2ccccc2)n1 > 76.9 µM, Cc1nnc(SCC(=O)N2CCC(C(=O)Nc3nccs3)CC2)n1Cc1ccccc1 > 76.9 µM, CC1(c2ccc3c(c2)OCO3)NC(=O)N(CC(=O)Nc2ccc(N3CCOCC3)cc2)C1=O (stereo not drawn) > 76.9 µM, CC(C)n1c(C(=O)OCC(=O)NCc2ccc3c(c2)OCO3)cc2sccc21 > 76.9 µM, COc1cc(C2C(C(=O)c3ccco3)=C(O)C(=O)N2c2cc(C)on2)cc(Br)c1O (stereo not drawn) > 76.9 µM, CCn1c(N)c(C(=O)NCc2ccc3c(c2)OCO3)sc1=S > 76.9 µM, C=CCNc1nc(-c2ccc(OC)cc2OC)cs1 > 76.9 µM, Cc1cc(C)cc(Oc2ccc(N)cc2)c1 > 76.9 µM, Cn1c(=O)c2c(nc(CN3CCOCC3)n2CC(=O)c2ccccc2)n(C)c1=O > 76.9 µM, CN1/C(=C\C(=O)CN2C(=O)NC3(CCCCCC3)C2=O)C(C)(C)c2ccccc21 > 76.9 µM, O=C(Cc1ccccc1)N1CCCC(c2nc(-c3cccs3)no2)C1 (stereo not drawn) > 76.9 µM, CC(C)(C)C(=O)Cn1c(=O)n(CC2CCCO2)c(=O)c2ccccc21 (stereo not drawn) > 76.9 µM, CC(=O)N1CCc2cc(S(=O)(=O)NC(C(=O)NCc3ccccc3)C(C)C)ccc21 (stereo not drawn) > 76.9 µM, Cc1ccccc1OCc1nnc(SCC(=O)NCc2ccccc2)n1C > 76.9 µM, Cc1nnc(SCC(=O)Nc2sccc2C(N)=O)n1Cc1ccccc1 > 76.9 µM, O=C(O)C1CCCCC1C(=O)NCCCN1CCOCC1 (stereo not drawn) > 76.9 µM, C=CCNC(=O)c1ccccc1Cl > 76.9 µM, CCC(C)N(C(=O)COC(=O)Cc1n[nH]c(=O)c2ccccc12)C1CCS(=O)(=O)C1 (stereo not drawn) > 76.9 µM, COc1ccc2nc(CC(C)(C)CC(=O)O)c[n+]([O-])c2c1 > 76.9 µM, Cc1[nH]nc2c1C1(CCOCC1)C(C#N)=C(N)O2 > 76.9 µM, COc1ccc(C2C(C(=O)c3cc4cccc(OC)c4o3)=C(O)C(=O)N2CCCN(C)C)cc1OC (stereo not drawn) > 76.9 µM, Cn1c(=O)n(CCc2ccccc2)c(=O)c2c1nc1n2CCCN1c1ccc(F)cc1 > 76.9 µM, CCCNC(=O)CN(c1ccc(F)c(Cl)c1)S(C)(=O)=O > 76.9 µM, CCN(C(=O)Cn1c(=O)n2nc(CCn3nc(C)cc3C)nc2c2ccccc21)c1cccc(C)c1 > 76.9 µM, CCOc1ccc2nc(SCC(=O)c3cccs3)sc2c1 > 76.9 µM, COc1ccc(C(CC(=O)Nc2nccs2)n2cccc2)cc1 (stereo not drawn) > 76.9 µM

— PubChem BioAssay AID360 (National Center for Advancing Translational Sciences (NCATS), 2006)
